The source of these data is PubChem BioAssay AID602332 (National Center for Advancing Translational Sciences (NCATS), 2012).

The structures appear in SMILES notation. Several values for one entry are separate records, joined by “and”; a condition that tells them apart may be missing. Equal entries are not always repeated. About 75 (0.02%) of roughly 420,000 compounds were called active. Calls follow the shape of the dose curve; as a rule, active = well fitted activation curve with a large enough effect; inconclusive = small, poorly fitted or top-dose-only effect; inactive = no such curve, though single readings can be large or run the other way. The entries are a selection whose mix differs from that of the whole data set. The source holds several records for some structures; these can differ, active in one and inactive in another.
Potency is read from the fitted curve at half-maximal effect.

The assay is described as follows: qHTS for Inducers of the Endoplasmic Reticulum Stress Response (ERSR) in Human Glioma: qHTS. Also: nearly all actives have a fitted effect of over 35% in size. As to activation: % of control where 0% means no effect. The note with it: U87-MG GRP78 promoter luciferase reporter, 16 h; activation: stronger effect = higher value. An excerpt: Primary protein unfolding takes place for many diseases, including diabetes and hypoxia, , and triggers a reaction in the cells called ER stress response (ERSR). ). ERSR is designed as a repair mechanism, but ultimately leads to cell death via apoptosis if conditions triggering protein unfolding persist (1). The molecular clue to ERSR activation is the enhancement of the expression of key molecular chaperones, including the glucose regulated protein (GRP) 78. GRP78 is the main sensor for protein folding and the main actuator of the ERSR.
In a collaboration between the Southern Research Institute and the NIH Chemical Genomics Center, a cell based screen was developed that reliably uses GRP78 as a sensor to identify small molecules as inducers of ERSR. In resting conditions, GRP78 binds proteins and acts as a natural repressor. Once unfolded proteins are present in the ER, GRP78 releases some of the repressors and binds to the unfolded proteins. The release of the repressors executes the ERSR program. Using a human glioma cell line in a miniaturized, luminescent format, a high-throughput screen was developed to identify actuators of the ERSR.
(1) Soboloff, J. and S. A. Berger (2002). "Sustained ER Ca2+ depletion suppresses protein synthesis and induces activation-enhanced cell death in mast cells." J Biol Chem 277(16): 13812-20.
NIH Chemical Genomics Center [NCGC]
NIH Molecular Libraries Probe Centers Network [MLPCN]
Assay Submitter (PI): Maurizio Grimaldi, Southern Research Institute
Stable transfected human glioma cell line, U87-MG, are dispensed at density 1000 cells/well into Greiner white solid bottom 1536-well assay plates. Compounds are transferred via Kalypsys pin tool equipped with 1536-pin array (10nl slotted pins, V&P Scientific, San Diego, CA). The assay plates will be incubated for 16 hours and developed by adding appropriate quantities of the Promega Bright Glo reagent. The plates will be incubated at room temperature for 10 minutes prior to being transferred into a ViewLux high-throughput CCD imager (PerkinElmer), wherein end-point measurements of luminescence are acquired.
Background: qHTS replaces the single test concentration by a dilution series.
Consider `CNc1ccc2oc(C[C@@H]3OC4(CC[C@@H]3C)O[C@H]([C@@H](C)C(=O)c3ccc[nH]3)[C@H](C)C[C@H]4C)nc2c1C(=O)O` (some centres undefined), for which the activation was inactive: 7.2% and inactive: 11.7%.
Turning to `Cc1ccc2c(Cl)cc(Cl)c(O)c2n1`, the activation is inactive: -5.87%.
With `N#C/C(=C\c1ccc(O)c(O)c1)C(=O)NCCCNC(=O)/C(C#N)=C/c1ccc(O)c(O)c1`, the Potency is active: 36.9 µM.
For `Clc1ccc(C(c2ccc(Cl)cc2)n2cc[n+](CC(OCc3ccc(Cl)cc3Cl)c3ccc(Cl)cc3Cl)c2)cc1` (centres undefined), the activation is inactive: -11.6% [middle of 4 runs].
Same read-out and setting: next, `C/C1=C/C(=O)O[C@@H]2C[C@@H](CC[C@H](C)/C=C\CC1)O[C@@](O)(C1CSC(=O)N1)C2` (some centres undefined): inactive: -3.78%.
On to `C/C(O)=C(\C#N)C(=O)Nc1cc(Br)ccc1Br`, for which the activation is inactive: -0.191% and inactive: -1.45% and inactive: 3.56%.
As for `O=c1cc(-c2ccc(O)c(O)c2)oc2cc(O)cc(O)c12`, the activation is inactive: 7.7% [middle of 4 runs].
Turning to `COc1ccc(OC)c(C(O)C(C)N)c1` (centres undefined), the activation is inactive: -3.39% and inactive: -2.17%.
Consider `Cc1c(C(=O)c2cccc3ccccc23)c2cccc3c2n1[C@@H](CN1CCOCC1)CO3`, for which the activation is inactive: -6.88%.
With `O=C1C2CCN(CC2)C1(CO)CO`, the activation is inactive: -11.8% [middle of 5 runs].
For the compound `CN[C@@H]1C[C@H](c2ccc(Cl)c(Cl)c2)c2ccccc21`, the activation is inactive: -8.17%.
`CC(=O)Nc1ccc(OC(=O)N2CCCCC2)cc1`: the activation is inactive: -13.5%.
Still for that read-out and setting: next, `CCn1cnc2c(Nc3cccc(Cl)c3)nc(N[C@@H]3CCCC[C@@H]3N)nc21`: inactive: -14.8%.
`C[C@@H](COc1ccccc1)N(CCCl)Cc1ccccc1`: the activation is inactive: -3.86%.
Regarding `C[C@@H]1C(=O)OC2C[C@@]34[C@H]5C[C@@H](C(C)(C)C)[C@@]36C(O)C(=O)O[C@H]6O[C@@]4(C(=O)O5)[C@]21O` (some centres undefined), the activation is inactive: -2.29%.
In the case of `CC(=O)[O][Hg][c]1ccccc1`, the activation was inactive: -12.8%.
Regarding `O=c1[nH]c2ccccc2n1C1CCN(CCCC(c2ccc(F)cc2)c2ccc(F)cc2)CC1`, the activation was inactive: -5.78% [middle of 7 runs].
Still for that read-out and setting: the result for `CC1=C(O)C(=O)[C@H]2O[C@@H]2C1=O` reads inactive: -11.6%; that for `Cc1nc2cc(-c3ccccc3)nn2c(C)c1CCC(=O)N1CCC2(CC1)OCCO2`, inactive: -12.3%; that for `Nc1cc(Cl)c2nonc2c1[N+](=O)[O-]`, inactive: -15.5%.
For `O=C(O)c1ccccc1Nc1cccc(C(F)(F)F)c1`, the activation is inactive: 1.26% [middle of 4 runs].
On the same count and under the same terms, next, `CCCN1CCc2cc(O)cc3c2C1Cc1ccc(O)c(O)c1-3` (centres undefined): inactive: 0.324%.
In the case of `COc1ccc(OC)c([C@H](O)[C@H](C)N)c1`, the activation is inactive: -3.41%.
`CCCCCCCCCCCCCC(=O)O[C@@H]1[C@@H](C)[C@@]2(O)[C@H](C=C(CO)C[C@]3(O)C(=O)C(C)=C[C@@H]23)[C@@H]2C(C)(C)C12OC(C)=O` (some centres undefined): the activation is inactive: 8.75%.
As for `O=C1/C(=C\c2ccccc2)C[C@@]2(O)[C@H]3Cc4ccc(O)c5c4[C@@]2(CCN3CC2CC2)[C@@H]1O5`, the activation is inactive: -11.9%.
`C[C@@H]1C(=O)O[C@H]2C[C@@]34[C@H]5C[C@@H](C(C)(C)C)[C@]36[C@H](OC(=O)[C@H]6O)O[C@]4(C(=O)O5)[C@]21O`: the activation is inactive: -7.36%.
For `CN1CCc2cc(O)cc3c2C1Cc1ccc(O)c(O)c1-3` (centres undefined), the activation was inactive: -3.45%.
With `CN1CCc2cc(O)cc3c2[C@H]1Cc1ccc(O)c(O)c1-3`, the activation is inactive: 8.03% and inactive: -0.0347% and inactive: -14.7%.
Take `CN1CC[C@]2(C)c3cc(O)ccc3N(C)[C@@H]12`: the activation was inactive: -4.06%.
For `CCn1nc(-c2ccccc2)nc2c(=O)n(C)c(=O)nc1-2`, the activation is inactive: -17.2%.
Consider `C=CCN1CC[C@@]23c4c5ccc(O)c4O[C@H]2/C(=N\N=C2/CC[C@@]4(O)[C@H]6Cc7ccc(O)c8c7[C@@]4(CCN6CC=C)[C@@H]2O8)CC[C@]3(O)[C@@H]1C5`, for which the activation is inactive: -4.75%.
`CC1CC[C@@]2(OC1)O[C@@H]1[C@@H](O)[C@H]3C4CC[C@H]5C[C@@H](O[C@@H]6O[C@H](CO)[C@H](O[C@@H]7O[C@H](CO)[C@@H](O)[C@H](O[C@@H]8OC[C@@H](O)[C@H](O)[C@H]8O)[C@H]7O[C@@H]7O[C@H](CO)[C@@H](O)[C@H](O[C@@H]8O[C@H](CO)[C@@H](O)[C@H](O)[C@H]8O)[C@H]7O)[C@H](O)[C@H]6O)[C@H](O)C[C@]5(C)C4CC[C@]3(C)[C@H]1[C@@H]2C` (some centres undefined): the activation was inactive: -11.7%.
Still for that read-out and setting: the result for `CC1C(=O)OC2CC34C5CC(C(C)(C)C)C36C(OC(=O)C6O)OC4(C(=O)O5)C21O` (centres undefined) reads inactive: -2.37%; that for `O=C1C2CC=CCC2C(=O)N1SC(Cl)(Cl)Cl` (centres undefined), inactive: -12.2%; that for `O=C1NCN(c2ccccc2)C12CCN(CCCOc1ccc(F)cc1)CC2`, inactive: 1.97%.
Still for that read-out and setting: the result for `N#Cc1c(Cl)c(Cl)c(Cl)c(C#N)c1Cl` reads inactive: -11.6% and inactive: -12.6%.
For the compound `C/C=C(/C)C(=O)O[C@H]1C(C)=C2[C@H]([C@@H]1OC(=O)CCCCCCC)[C@@](C)(OC(C)=O)C[C@H](OC(=O)CCC)[C@@]1(O)[C@H]2OC(=O)[C@@]1(C)O`, the Potency was active: 0.0165 µM.
As to `COc1ccc2c(c1)[C@@]13CCCC[C@H]1[C@@H](C2)NCC3`, the activation was inactive: -10.6%.
For `CC1(C)C(=O)C=C[C@@]2(C)C1=C(O)C(=O)[C@@]1(C)C2CC[C@@]2(C)C(c3ccoc3)C[C@H]3O[C@@]321` (some centres undefined), the activation is inactive: -12.5%.
With `CC1CC[C@@]2(OC1)OC1C(O)C3C4CC[C@H]5CC(O[C@@H]6O[C@@H](CO)[C@H](OC7OC(CO)C(O)C(OC8OCC(O)C(O)[C@H]8O)[C@@H]7O[C@@H]7OC(CO)[C@H](O)[C@@H](O[C@@H]8OC(CO)C(O)C(O)C8O)C7O)C(O)C6O)C(O)C[C@]5(C)C4CC[C@]3(C)C1C2C` (some centres undefined), the activation is inactive: -12.5%.
As to `F/C(COc1ccc2c(c1)[nH]c1ccccc12)=C1/CN2CCC1CC2`, the activation was inactive: -2.04%.
Take `C[C@]12Cc3cn4c(nc3C=C1CCC1C2CC[C@@]2(C)[C@H]1CC[C@@]2(O)C#N)nc1ccccc14` (some centres undefined): the activation is inactive: -13%.
`C=CCN1CCc2cccc3c2[C@H]1Cc1ccc(O)c(O)c1-3`: the activation is inactive: -4.28%.
In the case of `CCCCCCCCCCCCCC(=O)OC1C(C)[C@@]2(O)C(C=C(CO)C[C@]3(O)C(=O)C(C)=C[C@H]23)[C@@H]2C(C)(C)[C@]12OC(C)=O` (some centres undefined), the activation is inactive: 4.29%.
On to `O=C1NC(=O)N(CCc2ccc(F)cc2)C(=O)/C1=C\C=C\c1ccccc1`, for which the activation is inactive: 7.49%.
On to `CCCC1COC(Cn2cncn2)(c2ccc(Cl)cc2Cl)O1` (centres undefined), for which the activation was inactive: -4.94% and inactive: -12.4%.
In the case of `CC(=O)C1=C(O)C2C3c4c[nH]c5cccc(c45)CC3C(C)(C)N2C1=O` (centres undefined), the activation is inactive: 3.4%.
As for `Ic1ccccc1CN[C@@H]1C2CCN(CC2)[C@@H]1C(c1ccccc1)c1ccccc1`, the activation is inactive: -3.05%.
As for `C/C(O)=C(/C#N)C(=O)Nc1cc(Br)ccc1Br`, the activation is inactive: -2.78%.
Take `CC1=CC(=O)c2c(O)cccc2C1=O`: the activation is inactive: -12.5% and inactive: -11.9%.
The same measure, in the same setting: the result for `O=[N+]([O-])/C=C/c1ccc2c(c1)OCO2` reads inactive: -14.6%.
On the same count and under the same terms, the result for `O=[N+]([O-])c1ccc(Sc2nc3ccccc3o2)c([N+](=O)[O-])c1` reads inactive: -14.1%; that for `C[C@@H]1C(=O)O[C@H]2C[C@@]34[C@H]5C[C@@H](C(C)(C)C)[C@]36[C@@H](OC(=O)[C@@H]6O)O[C@@]4(C(=O)O5)[C@]21O`, inactive: -1.54%.
For the compound `CCCN1CCc2cc(O)cc3c2[C@H]1Cc1ccc(O)c(O)c1-3`, the activation was inactive: -4.54% and inactive: -11.6% and inactive: -14.5%.
Take `COC(=O)C1=C(C)NC(C)=C(C(=O)OC)C1c1ccccc1[N+](=O)[O-]`: the activation is inactive: -6.28% [middle of 8 runs].
On to `CN1CC[C@@]2(C)c3cc(O)ccc3N(C)[C@@H]12`, for which the activation is inactive: -5.61% and inactive: -5.77% and inactive: -4.26%.
With `CCCCCCCCCCCCCC(=O)O[C@@H]1[C@@H](C)[C@@]2(O)[C@@H](C=C(CO)C[C@@]3(O)C(=O)C(C)=C[C@@H]23)C2C(C)(C)[C@@]21OC(C)=O` (some centres undefined), the activation was inactive: -14%.
As to `COc1ccc2c(c[n+](C)c3c4cc5c(cc4ccc23)OCO5)c1OC`, the activation is inactive: -11.6% [middle of 4 runs].
Same read-out and setting: next, `CNc1ccc2oc(C[C@H]3O[C@@]4(CC[C@H]3C)O[C@H]([C@H](C)C(=O)c3ccc[nH]3)[C@H](C)C[C@H]4C)nc2c1C(=O)O`: inactive: 0.258%.
On the same count and under the same terms, next, `O=C1/C(=C/c2ccccc2)C[C@@]2(O)[C@H]3Cc4ccc(O)c5c4[C@@]2(CCN3CC2CC2)C1O5` (some centres undefined): inactive: -11.9%; `CN(C)C(=O)Oc1cc(OC(=O)N(C)C)cc(C(O)CNC(C)(C)C)c1` (centres undefined): inactive: -3.42% and inactive: -1.07% and inactive: 0.439%.
On to `O=C1/C(=C\c2ccccc2)C[C@@]2(O)[C@H]3Cc4ccc(O)c5c4[C@@]2(CCN3CC2CC2)[C@H]1O5`, for which the activation was inactive: -11.7%.
In the case of `CN1CCC(O)(c2ccccc2)C(C(=O)c2ccccc2)C1` (centres undefined), the activation is inactive: -18.4%.
In the case of `CC(C)(c1ccc(OCC2CO2)cc1)c1ccc(OCC2CO2)cc1` (centres undefined), the activation was inactive: -2.74% and inactive: -11.3%.
As for `CC(COc1ccccc1)N(CCCl)Cc1ccccc1` (centres undefined), the activation was inactive: -2.92% [middle of 5 runs].
Turning to `CCCCCCn1c(N)c(C(=O)NCCN2CCOCC2)c2nc3ccccc3nc21`, the activation is inactive: -15.3%.
With `O=c1oc(Cl)c(Cl)c2ccccc12`, the activation is inactive: -3.35% and inactive: -0.931% and inactive: -11.9%.
Turning to `O=C1C=C2C(=CCOC2O)O1` (centres undefined), the activation was inactive: -12.5%.
Still for that read-out and setting: next, `CN(N=O)c1cc(O)ccc1O`: inactive: 0.381% and inactive: -13.2%.
